Measurements from the supplement of paper PMC8728848.
This is one part of the list.

Key:
Experiment in all cases: glycan array binding signal (z-score within array); higher = stronger binding
Conditions in all cases: glycan notation: IUPAC condensed, linker removed
[1] = target: Neu5Ac(a2-3)Gal(b1-4)GlcNAc(b1-6)GalNAc
Outline: (§1)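 The Consortium for Functional Glycomics database supplied 3228 glycan arrays, of which those lacking an available protein sequence were dropped. The binding signal, a within-array Z-score, was averaged across arrays of the same protein sequence and across linkers. Negative scores can be read as non-binding.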

[2] = target: Neu5Ac(a2-3)Gal(b1-4)GlcNAc(b1-6)[Gal(b1-3)]GalNAc
Outline: as §1

[3] = target: Neu5Ac(a2-3)Gal(b1-4)GlcNAc(b1-6)[Neu5Ac(a2-3)Gal(b1-3)]GalNAc
Outline: as §1

[4] = target: Neu5Ac(a2-3)Gal(b1-4)GlcNAc6S
Outline: as §1

[5] = target: Neu5Ac(a2-3)Gal(b1-4)[Fuc(a1-3)]GlcNAc
Outline: as §1

[6] = target: Neu5Ac(a2-3)Gal(b1-4)[Fuc(a1-3)]GlcNAc(b1-2)Man
Outline: as §1

[7] = target: Neu5Ac(a2-3)Gal(b1-4)[Fuc(a1-3)]GlcNAc(b1-3)Gal
Outline: as §1

[8] = target: Neu5Ac(a2-3)Gal(b1-4)[Fuc(a1-3)]GlcNAc(b1-3)Gal(b1-4)GlcNAc
Outline: as §1

[9] = target: Neu5Ac(a2-3)Gal(b1-4)[Fuc(a1-3)]GlcNAc(b1-3)Gal(b1-4)[Fuc(a1-3)]GlcNAc(b1-3)Gal(b1-4)[Fuc(a1-3)]GlcNAc
Outline: as §1

[10] = target: Neu5Ac(a2-3)Gal(b1-4)[Fuc(a1-3)]GlcNAc(b1-3)GalNAc
Outline: as §1

[11] = target: Neu5Ac(a2-3)Gal(b1-4)[Fuc(a1-3)]GlcNAc(b1-6)[Gal(b1-3)]GalNAc
Outline: as §1

[12] = target: Neu5Ac(a2-3)Gal(b1-4)[Fuc(a1-3)]GlcNAc(b1-6)[Neu5Ac(a2-3)Gal(b1-3)]GalNAc
Outline: as §1

[13] = target: Neu5Ac(a2-3)Gal(b1-4)[Fuc(a1-3)]GlcNAc6S
Outline: as §1

[14] = target: Neu5Ac(a2-3)Gal6S(b1-4)GlcNAc
Outline: as §1

[15] = target: Neu5Ac(a2-3)Gal6S(b1-4)[Fuc(a1-3)]GlcNAc
Outline: as §1

Neu5Ac(a2-3)GalNAc = target: Neu5Ac(a2-3)GalNAc
Outline: as §1

[16] = target: Neu5Ac(a2-3)GalNAc(b1-4)GlcNAc
Outline: as §1

[17] = target: Neu5Ac(a2-3)[GalNAc(b1-4)]Gal(b1-4)Glc
Outline: as §1

[18] = target: Neu5Ac(a2-3)[GalNAc(b1-4)]Gal(b1-4)GlcNAc
Outline: as §1

[19] = target: Neu5Ac(a2-3)[GalNAc(b1-4)]Gal(b1-4)GlcNAc(b1-3)GalNAc
Outline: as §1

[20] = target: Neu5Ac(a2-3)[Neu5Ac(a2-6)]GalNAc
Outline: as §1

Neu5Ac(a2-6)Gal = target: Neu5Ac(a2-6)Gal
Outline: as §1

[21] = target: Neu5Ac(a2-6)Gal(b1-3)GlcNAc(b1-3)[Gal(b1-4)GlcNAc(b1-6)]Gal(b1-4)Glc
Outline: as §1

Neu5Ac(a2-6)Gal(b1-4)Glc = target: Neu5Ac(a2-6)Gal(b1-4)Glc
Outline: as §1

[22] = target: Neu5Ac(a2-6)Gal(b1-4)GlcNAc
Outline: as §1

[23] = target: Neu5Ac(a2-6)Gal(b1-4)GlcNAc(b1-2)Man
Outline: as §1

[24] = target: Neu5Ac(a2-6)Gal(b1-4)GlcNAc(b1-2)Man(a1-3)Man(b1-4)GlcNAc(b1-4)GlcNAc
Outline: as §1

[25] = target: Neu5Ac(a2-6)Gal(b1-4)GlcNAc(b1-2)Man(a1-3)[Gal(b1-4)GlcNAc(b1-2)Man(a1-6)]Man(b1-4)GlcNAc(b1-4)GlcNAc
Outline: as §1

[26] = target: Neu5Ac(a2-6)Gal(b1-4)GlcNAc(b1-2)Man(a1-3)[GlcNAc(b1-4)][Neu5Ac(a2-6)Gal(b1-4)GlcNAc(b1-2)Man(a1-6)]Man(b1-4)GlcNAc(b1-4)GlcNAc
Outline: as §1

[27] = target: Neu5Ac(a2-6)Gal(b1-4)GlcNAc(b1-2)Man(a1-3)[Man(a1-6)]Man(b1-4)GlcNAc(b1-4)GlcNAc
Outline: as §1

[28] = target: Neu5Ac(a2-6)Gal(b1-4)GlcNAc(b1-2)Man(a1-3)[Neu5Ac(a2-3)Gal(b1-4)GlcNAc(b1-2)Man(a1-6)]Man(b1-4)GlcNAc(b1-4)GlcNAc
Outline: as §1

[29] = target: Neu5Ac(a2-6)Gal(b1-4)GlcNAc(b1-2)Man(a1-3)[Neu5Ac(a2-6)Gal(b1-4)GlcNAc(b1-2)Man(a1-6)]Man(b1-4)GlcNAc(b1-4)GlcNAc
Outline: as §1

[30] = target: Neu5Ac(a2-6)Gal(b1-4)GlcNAc(b1-2)Man(a1-3)[Neu5Ac(a2-6)Gal(b1-4)GlcNAc(b1-2)Man(a1-6)]Man(b1-4)GlcNAc(b1-4)[Fuc(a1-6)]GlcNAc
Outline: as §1

[31] = target: Neu5Ac(a2-6)Gal(b1-4)GlcNAc(b1-2)Man(a1-6)Man(b1-4)GlcNAc(b1-4)GlcNAc
Outline: as §1

[32] = target: Neu5Ac(a2-6)Gal(b1-4)GlcNAc(b1-2)Man(a1-6)[Gal(b1-4)GlcNAc(b1-2)Man(a1-3)]Man(b1-4)GlcNAc(b1-4)GlcNAc
Outline: as §1

[33] = target: Neu5Ac(a2-6)Gal(b1-4)GlcNAc(b1-2)Man(a1-6)[GlcNAc(b1-2)Man(a1-3)]Man(b1-4)GlcNAc(b1-4)GlcNAc
Outline: as §1

[34] = target: Neu5Ac(a2-6)Gal(b1-4)GlcNAc(b1-2)Man(a1-6)[Man(a1-3)]Man(b1-4)GlcNAc(b1-4)GlcNAc
Outline: as §1

[35] = target: Neu5Ac(a2-6)Gal(b1-4)GlcNAc(b1-2)[Neu5Ac(a2-6)Gal(b1-4)GlcNAc(b1-4)]Man(a1-3)[GlcNAc(b1-4)][Neu5Ac(a2-6)Gal(b1-4)GlcNAc(b1-2)[Neu5Ac(a2-6)Gal(b1-4)GlcNAc(b1-6)]Man(a1-6)]Man(b1-4)GlcNAc(b1-4)GlcNAc
Outline: as §1

[36] = target: Neu5Ac(a2-6)Gal(b1-4)GlcNAc(b1-2)[Neu5Ac(a2-6)Gal(b1-4)GlcNAc(b1-4)]Man(a1-3)[GlcNAc(b1-4)][Neu5Ac(a2-6)Gal(b1-4)GlcNAc(b1-4)Man(a1-6)]Man(b1-4)GlcNAc(b1-4)GlcNAc
Outline: as §1

[37] = target: Neu5Ac(a2-6)Gal(b1-4)GlcNAc(b1-2)[Neu5Ac(a2-6)Gal(b1-4)GlcNAc(b1-6)]Man(a1-6)[Neu5Ac(a2-6)Gal(b1-4)GlcNAc(b1-2)Man(a1-3)][GlcNAc(b1-4)]Man(b1-4)GlcNAc(b1-4)GlcNAc
Outline: as §1

[38] = target: Neu5Ac(a2-6)Gal(b1-4)GlcNAc(b1-3)Gal(b1-3)GlcNAc
Outline: as §1

[39] = target: Neu5Ac(a2-6)Gal(b1-4)GlcNAc(b1-3)Gal(b1-4)GlcNAc
Outline: as §1

[40] = target: Neu5Ac(a2-6)Gal(b1-4)GlcNAc(b1-3)Gal(b1-4)GlcNAc(b1-2)Man(a1-3)[Neu5Ac(a2-6)Gal(b1-4)GlcNAc(b1-3)Gal(b1-4)GlcNAc(b1-2)Man(a1-6)]GalNAc
Outline: as §1

[41] = target: Neu5Ac(a2-6)Gal(b1-4)GlcNAc(b1-3)Gal(b1-4)GlcNAc(b1-3)Gal(b1-4)GlcNAc
Outline: as §1

[42] = target: Neu5Ac(a2-6)Gal(b1-4)GlcNAc(b1-3)Gal(b1-4)GlcNAc(b1-3)Gal(b1-4)GlcNAc(b1-2)Man(a1-3)[Neu5Ac(a2-6)Gal(b1-4)GlcNAc(b1-3)Gal(b1-4)GlcNAc(b1-3)Gal(b1-4)GlcNAc(b1-2)Man(a1-6)]GalNAc
Outline: as §1

B1: RBMC2 (Vibrio cholerae) (protein)
chain: KISVRSGFAIDAIGASASTLVGGTGGNLNAAVNVKDIKAIDLTWGKYYWGGYHLLALDFRMSNGSVISMGSKNYAYSKQTERFTVPAGSRIKGIKAWTAGWLLDGVQFELA
B1 was tested, and the “glycan array binding signal (z-score)” value [1] was -0.363, the “glycan array binding signal (z-score)” value [2] was -0.171 and the “glycan array binding signal (z-score)” value [3] was -0.331. The “glycan array binding signal (z-score)” value [4] was -0.318, the “glycan array binding signal (z-score)” value [5] was -0.409 and the “glycan array binding signal (z-score)” value [6] was -0.221. For the same binder, the “glycan array binding signal (z-score)” value [7] was -0.435, the “glycan array binding signal (z-score)” value [8] was -0.184 and the “glycan array binding signal (z-score)” value [9] was -0.352. The “glycan array binding signal (z-score)” value [10] was -0.389, the “glycan array binding signal (z-score)” value [11] was -0.238 and the “glycan array binding signal (z-score)” value [12] was -0.025. For the same binder, the “glycan array binding signal (z-score)” value [13] was -0.203, the “glycan array binding signal (z-score)” value [14] was -0.251 and the “glycan array binding signal (z-score)” value [15] was -0.474. The “glycan array binding signal (z-score)” value (Neu5Ac(a2-3)GalNAc) was 0.039, the “glycan array binding signal (z-score)” value [16] was -0.3 and the “glycan array binding signal (z-score)” value [17] was -0.352. The “glycan array binding signal (z-score)” value [18] was -0.404, the “glycan array binding signal (z-score)” value [19] was -0.2 and the “glycan array binding signal (z-score)” value [20] was -0.245. The “glycan array binding signal (z-score)” value (Neu5Ac(a2-6)Gal) was -0.4, the “glycan array binding signal (z-score)” value [21] was -0.431 and the “glycan array binding signal (z-score)” value (Neu5Ac(a2-6)Gal(b1-4)Glc) was -0.368. For the same binder, the “glycan array binding signal (z-score)” value [22] was -0.313, the “glycan array binding signal (z-score)” value [23] was -0.356 and the “glycan array binding signal (z-score)” value [24] was -0.132. For the same binder, the “glycan array binding signal (z-score)” value [25] was -0.285, the “glycan array binding signal (z-score)” value [26] was -0.252 and the “glycan array binding signal (z-score)” value [27] was 12.3. For the same binder, the “glycan array binding signal (z-score)” value [28] was 3.39, the “glycan array binding signal (z-score)” value [29] was 2.41 and the “glycan array binding signal (z-score)” value [30] was 3.57. The “glycan array binding signal (z-score)” value [31] was -0.226, the “glycan array binding signal (z-score)” value [32] was 3.52 and the “glycan array binding signal (z-score)” value [33] was 2.95. The “glycan array binding signal (z-score)” value [34] was 0.459, the “glycan array binding signal (z-score)” value [35] was -0.425 and the “glycan array binding signal (z-score)” value [36] was -0.278. For the same binder, the “glycan array binding signal (z-score)” value [37] was -0.358, the “glycan array binding signal (z-score)” value [38] was -0.172 and the “glycan array binding signal (z-score)” value [39] was -0.407. For the same binder, the “glycan array binding signal (z-score)” value [40] was 0.542, the “glycan array binding signal (z-score)” value [41] was -0.262 and the “glycan array binding signal (z-score)” value [42] was 0.899.
